# Assay results as given in PubChem BioAssay AID1508642 (National Center for Advancing Translational Sciences (NCATS), 2021).
# Among all 43,000 compounds or so, about 200 (0.47%) were called active. Roughly 12% stayed inconclusive and do not appear here. Calls come from the whole dose curve; as a rule, active = well fitted cell-killing curve with a large enough effect; inconclusive = small, poorly fitted or top-dose-only effect, or effect the other way; inactive = flat fitted curve, though single readings scatter. This is one part of the list.
# Assay: Cell viability qHTS assay in S16 Pmp22-F2sN cells; note: nearly all actives have a fitted effect of over 65% in size
# Details: S16 Pmp22-F2sN Schwann cells (luciferase reporters placed in the Pmp22 gene) viability, CellTiter-Glo, 24 h; series mostly up to 57.5 µM; activity change, negative = cytotoxicity: at the top concentration
# Method in brief: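 Rat S16 Schwann reporter line, 24 h treatment with library compounds delivered at 23 nL per well. Cell viability by CellTiter-Glo luminescence.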
# % is set by controls: 0 for no effect and ±100 for the full control effect.
row,SMILES,"activity change, negative = cytotoxicity"
1,CCOC(=O)c1ccc(NC(=O)C(=O)NCc2ccco2)cc1,inactive: 3.45%
2,COc1cccc(Cc2nc3ccccc3nc2SCC(=O)N2CCc3ccccc32)c1,inactive: 7.67%
3,CCOc1ccccc1NC(=O)C1CCN(S(=O)(=O)c2ccc(Br)cc2)CC1,inactive: -3.22%
4,Cc1ccc(-n2nc(C(=O)N3CCCCC3C)c(=O)n(C)c2=O)cc1 (configuration not stated),inactive: 4.41%
5,Cc1nn(CCCC(=O)NCc2ccccc2)c(=O)c2c1sc1ccccc12,inactive: 14.1%
6,CC1CN(C(=O)CCC(=O)NCc2cccs2)c2ccccc2O1 (configuration not stated),inactive: 3.74%
7,COc1ccc(NC(=O)c2c(NCc3ccc(C)o3)sc3c2CCC(C)C3)cc1 (configuration not stated),inactive: -23.2%
8,Cc1ccc(S(=O)(=O)c2cn(C)c3cc(N4CCN(c5ccccc5)CC4)c(F)cc3c2=O)cc1,inactive: -4.91%
9,CCOC(=O)N1CCc2c(sc3c2c(=O)n(Cc2ccccc2)c(=O)n3Cc2cccc(Cl)c2)C1,inactive: -12.9%
10,COc1cc(NC(=O)C2=C(C)Nc3nnnn3C2c2ccc(SC)cc2)c(OC)cc1Cl (configuration not stated),inactive: 0.0199%
11,COc1ccc(NC(=O)c2c(NC(=O)COc3ccc(Cl)cc3)sc3c2CCCCC3)cc1,inactive: 20.5%
12,CCOC(=O)CCN(Cc1ccccc1)S(=O)(=O)c1csc(C(N)=O)c1,inactive: -5.07%
13,CCN(C(=O)Cn1nc2c3cc(F)ccc3n(Cc3cccc(C)c3)cc-2c1=O)c1cccc(C)c1,inactive: 5.84%
14,O=C(NCCCN1CCN(c2ccc(F)cc2)CC1)c1cc2c(s1)-c1ccccc1OC2,inactive: -10.6%
15,CCOC(=O)c1ccc2c(c1)N(CC(=O)Nc1cc(F)ccc1F)C(=O)c1ccccc1S2,inactive: 14.6%
16,CSc1ccccc1NC(=O)C1=CC(c2ccc3c(c2)OCO3)=NS(=O)(=O)N1C,inactive: -11.1%
17,CC1=C(C(N)=O)C(c2cccc(C)c2)n2nc(-c3ccc(Cl)cc3)nc2N1 (configuration not stated),inactive: -15.8%
18,COc1ccc(Cn2nnc3c(=O)[nH]c(C4CCCN(C(=O)c5ccccc5Cl)C4)nc32)cc1OC (configuration not stated),inactive: 2.15%
19,Cc1ccc(C)c(NC(=O)C(=O)NCC(c2cccnc2)N2CCN(c3ccc(F)cc3)CC2)c1 (configuration not stated),inactive: -28.4%
20,N#Cc1cc2c(=O)n3ccccc3nc2n(-c2nnc(SCc3ccc(F)cc3)s2)c1=O,inactive: -14%
21,COc1cc(OC)c(NC(=O)N2CCOc3ccc(C)cc32)cc1Cl,inactive: 3.16%
22,COc1ccc(-c2[nH]c(-c3ccc(OC)c(OC)c3)nc2SCC(=O)Nc2ccccc2)cc1,inactive: -2.72%
23,Cc1cccc(NC(=O)c2oc3ccc(S(=O)(=O)N4CCCCC4)cc3c2C)c1C,inactive: -9.66%
24,O=C(c1cccc(Cl)c1)N1CCC(c2nc3c(nnn3Cc3ccc(F)cc3F)c(=O)[nH]2)CC1,inactive: -26.1%

row,SMILES,"activity change, negative = cytotoxicity"
1,COc1cc(C(=O)Nc2ccccc2OCc2cc(=O)n3cc(C)sc3n2)cc(OC)c1OC,inactive: 0.328%
2,COc1ccc(C(=O)c2cn(Cc3ccccc3F)c3ccc(F)cc3c2=O)cc1,inactive: -6.43%
3,CCOc1ccccc1C(=O)N(Cc1ccc(N(C)C)cc1)Cc1ccco1,inactive: 1.94%
4,Cn1ccc2cc(S(=O)(=O)N3CCCN(C(=O)Nc4ccc(Br)cc4)CC3)ccc21,inactive: -13.6%
5,COc1ccc(CCNC(=O)CSc2nnc(-c3ccc(C)cc3)c(-c3ccc(C)cc3)n2)cc1OC,inactive: -0.88%
6,Cc1ccc(-c2noc(-c3ccc(NCC4CCCO4)c([N+](=O)[O-])c3)n2)cc1 (configuration not stated),inactive: 10.6%
7,CCCCOc1cccc(C(=O)N(Cc2ccc(Cl)cc2)C2CCS(=O)(=O)C2)c1 (configuration not stated),inactive: -18.3%
8,COc1ccccc1NC(=O)N1CC=C(c2c[nH]c3ccccc23)CC1,inactive: 21.6%
9,CCOc1ccc(C(=O)NCCS(=O)(=O)N2CCN(c3cccc(Cl)c3)CC2)cc1,inactive: -9.76%
10,Cc1cc(=O)[nH]c2nnc(SCCC(C)C)n12,inactive: 4.52%
11,COc1cccc(C2=NN(S(C)(=O)=O)C(c3cn(-c4ccccc4)nc3-c3cccs3)C2)c1 (configuration not stated),inactive: -1.03%
12,COc1ccc(CNC(=O)CN(C)c2nn3c(=O)cc(C)nc3s2)cc1,inactive: 13%
13,CC(=O)c1ccc(N2CCN(C(=O)CS(=O)(=O)c3cccc4nsnc34)CC2)cc1,inactive: -4.42%
14,CCOC(=O)CC(NC(=O)CCc1c(C)nc2cc(-c3ccccc3)nn2c1C)c1ccc(C)cc1 (configuration not stated),inactive: -2.46%
15,N#Cc1ccccc1NC(=O)C(=O)NCC(c1cccnc1)N1CCc2ccccc21 (configuration not stated),inactive: -24.6%
16,COc1cc(OC)c(NC(=O)C(C)n2nc(-c3ccc(C)cc3)c3c(c2=O)CCCC3)cc1Cl (configuration not stated),inactive: -27.7%
17,O=C(Nc1cc(F)ccc1F)c1cnn2c(C(F)F)cc(-c3ccccc3)nc12,inactive: -5.44%
18,COC(=O)c1ccc(NC(=O)CSc2nc3cc4ccccc4cc3[nH]2)cc1,inactive: -14.2%
19,Cc1ccc(S(=O)(=O)c2nnn3c2nc(N2CCN(c4cccc(C)c4C)CC2)c2ccccc23)cc1C,inactive: -1.27%
20,COc1ccccc1-c1cc2nc(C)c(CCC(=O)NC3CCCCC3)c(C)n2n1,inactive: -1.68%
21,Cc1ccc(NC(=O)C2CCCN(c3ncnc4onc(C)c34)C2)cc1Cl (configuration not stated),inactive: -8.91%
22,CCn1cc(C(=O)NCc2ccccc2Cl)c(=O)c2cc(S(=O)(=O)N3CCCCCC3)ccc21,inactive: 8.29%
23,CCOc1ccc(Nc2oc(-c3ccc(COc4ccc(C)cc4)o3)nc2C#N)cc1,inactive: 1.43%
